Experimental data as given in the supplement of paper PMC3334620.
Whole data set: some 33,000 sequences, median “E-score (-0.5 to 0.5)” near -0.011, cut for the highest 2% near 0.28. This is one part of the list.

Biological target: T1, Gcr1 (UniProt P07261)
T1 sequence: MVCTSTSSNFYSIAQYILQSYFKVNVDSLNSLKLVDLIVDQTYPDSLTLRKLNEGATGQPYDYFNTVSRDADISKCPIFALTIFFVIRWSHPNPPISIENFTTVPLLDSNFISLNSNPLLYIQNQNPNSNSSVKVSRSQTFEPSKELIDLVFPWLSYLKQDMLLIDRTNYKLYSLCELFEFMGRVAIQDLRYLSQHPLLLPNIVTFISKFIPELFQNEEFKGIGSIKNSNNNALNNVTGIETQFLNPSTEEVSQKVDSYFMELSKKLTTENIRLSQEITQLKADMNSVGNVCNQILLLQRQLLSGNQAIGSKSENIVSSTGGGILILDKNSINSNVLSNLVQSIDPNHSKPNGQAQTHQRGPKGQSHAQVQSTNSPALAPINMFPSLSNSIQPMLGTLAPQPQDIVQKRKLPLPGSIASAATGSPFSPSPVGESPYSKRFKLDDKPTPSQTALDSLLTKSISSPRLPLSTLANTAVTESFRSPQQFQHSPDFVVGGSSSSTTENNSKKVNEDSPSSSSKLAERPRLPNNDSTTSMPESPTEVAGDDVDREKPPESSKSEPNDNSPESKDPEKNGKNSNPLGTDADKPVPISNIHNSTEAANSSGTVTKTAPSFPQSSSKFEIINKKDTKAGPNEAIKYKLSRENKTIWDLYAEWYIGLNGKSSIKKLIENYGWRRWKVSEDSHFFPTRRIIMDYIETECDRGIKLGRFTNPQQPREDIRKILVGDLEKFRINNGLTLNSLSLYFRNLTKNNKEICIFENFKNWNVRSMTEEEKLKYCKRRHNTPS
Test: PBM E-score (8-mer binding enrichment) (E-score (-0.5 to 0.5)); higher = stronger / more preferred TF binding; most listed sequences are background and not binding sites
Settings: protein concentration: 100 nM; construct: GST-full length
Protocol: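 Universal 'all 10-mer' protein binding microarrays (Agilent AMADID 015681) probed with GST-tagged S. cerevisiae TFs (full-length or DBD) made by in vitro transcription/translation (PURExpress), about 100-200 nM. Bound TF was detected with fluorescent anti-GST. Each ungapped 8-mer (which stands for itself and its reverse complement) is scored by the PBM enrichment score (E-score), a modified Wilcoxon-Mann-Whitney statistic from -0.5 to +0.5, computed with the Universal PBM Analysis Suite. Scale: above 0.35 generally sequence-specific binding.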

Sequence	PBM E-score
ATATTGGC	0.15
CACCTGCG	-0.0735
GCATAAAA	-0.0293
AAGCACCT	0.106
CCGGGTGA	-0.0768
AAGTGCGT	0.00837
CTCGGCAG	0.11
TCAGGTCA	-0.241
ATGTGAGC	-0.164
AAGCTTTG	-0.142
AAGATAGC	-0.101
CGTCCCGC	-0.0165
AACGTTCG	-0.224
ACTCGTGA	-0.0087
ATGCAGTA	-0.0404
ACTTTAAT	0.0661
AACTTCCG	0.267
ATCCGCTG	0.0205
ACCGTCCC	-0.0913
CTTCTAGA	0.231
GAAAGAGA	-0.038
GTATTCAA	0.103
AACAGAAT	0.161
ACGGAGCG	0.0368
CTCTCCGA	0.00694

Sequence	PBM E-score
ACACTGCT	-0.245
GTACCCGA	0.0523
AGAAATAG	0.119
CTAAATCA	0.121
CATTTTGG	0.264
GATACACA	0.124
GTGGCATA	-0.106
AGTCGAAA	0.0193
CCTACATA	0.209
GGGTCTGA	-0.18
AGGTTCTG	0.094
TACTTGCA	0.00277
ACGGTACG	-0.104
ACTTCTAA	0.0859
GCCCGTCC	-0.184
ACTGAGAG	-0.0975
AGCGATTG	-0.0464
GAGAAGAA	0.0707
TGCCAGAA	0.249
ATATGCCG	-0.0206
AGTAGCTC	0.0884
GACAGTCA	-0.00968
TAGTTTCA	0.0381
GTAAATAA	0.0571
CACAGACG	-0.15

Sequence	PBM E-score
GACATAAA	0.121
GTCCTGTA	0.168
GTATCCTA	0.0709
AGGACATA	-0.0972
GGAACTCC	0.0709
ACTGGACT	0.134
CACCTCGG	0.0439
TACATGAA	0.0327
GTGTAAAC	0.0135
ATGTATCG	-0.0321
ATCAGGTG	-0.228
CTAAAGCA	-0.0648
AAGGCATC	0.0959
CGAGTGCG	-0.0321
AGAGACTC	-0.046
CTAGAGTC	-0.041
CTTCTTCC	0.0494
TGAGATCA	-0.0605
AGCCAACC	-0.129
AAGACGAC	-0.0134
ACGTTTGG	0.0916
ACACTGCA	-0.161
ACCGGGGA	0.0187
ATACTCAT	-0.0194
CGCGTCAG	-0.177

Sequence	PBM E-score
GAGAGGAA	0.128
AATCAAAT	0.0954
AGAAAGGA	-0.143
ATTTAACA	0.064
ACCAGAAC	0.235
AGGCAGGC	-0.103
AGGGTATG	-0.149
ATGGACAA	-0.0343
AACTGTGG	0.215
CGGAAAAA	0.265
ATTATCGC	0.052
CCAATTCC	-0.0267
CATTCAGA	-0.0501
ATCCGCTA	0.0146
ACACATGT	-0.0657
GCGTGTCC	0.0745
CATTAACG	-0.121
AAGAATCA	0.142
ACCTGGGC	-0.141
GGTTGAAC	-0.103
CCCCGGGG	0.00556
GAAGCACA	0.117
CAATCCCG	0.206
ATACCGTG	0.0206
ACTACTTG	0.113

Sequence	PBM E-score
ATTTCTAC	0.0933
GCACGTGA	-0.271
AACTTAAC	-0.0532
ACCCCGGA	-0.0354
TGTACACA	-0.0143
GCACTCAA	-0.0329
ATATCACG	-0.0835
CGCATAAA	0.0544
CCTGATTC	-0.0618
ATTAAGAC	-0.0955
CTGACAAA	0.143
CAACCACA	0.133
AAAGGATT	-0.161
ATACTGGA	0.373
AGCACCGA	0.24
AAAAGGCA	-0.163
AAAGTGCT	-0.043
AACGTACT	-0.107
TCCAATAA	0.13
ACACATCC	-0.00426
GACTGCAA	-0.102
ACATAGAC	-0.0117
CGCCCCGC	-0.0438
GGTGTTGA	-0.142
AAGGCAAT	-0.23

Sequence	PBM E-score
AAGCCCAG	0.0416
ATAGCCTG	-0.14
ACAGGGAA	-0.0504
AGCCCAGC	0.0981
AATTGTAA	0.0635
GAGATCTA	-0.214
CATATGAA	-0.143
GTACTCGA	0.0432
TGTTACAA	0.0822
ACGCTCGC	0.0255
AGAGTCTG	0.0715
GGAGCTAC	0.00703
AGCTAATC	-0.158
TAGCCAGA	0.162
GTCCACGA	-0.0295
CTTAAAGA	0.078
CATAACAG	-0.145
AGGAACGG	0.0392
CTTTGGTA	0.0434
ATTAACAC	-0.0815
GCCCACCA	0.133
AACTTGTA	0.182
CCCAAGCG	-0.0854
ATTTACCC	0.0556
GGAGTGTA	-0.218

Sequence	PBM E-score
ACCATAAA	0.0682
CCCAATAC	0.0106
AAGAACCC	0.274
TAGACGAA	0.179
AGAGTGCA	-0.073
GAGTGTCA	-0.0878
ACAGTGGA	0.274
CATAGCTC	-0.189
CGAGCGTA	-0.17
CGATGATA	-0.161
CAGGGTCC	0.21
CAGATTAC	-0.173
ACGATGTA	-0.187
TAAGACTA	0.0156
GAGAATCC	0.236
GAATTTGA	0.174
AACTCGAG	-0.112
GAAGGGAA	-0.178
AAAGATCG	-0.0554
CGTCTCAG	-0.0166
ACCTCTCC	-0.2
CTTAATAC	0.0397
CTTCAATA	0.112
TGGCGAAA	-0.121
TAGCACAA	-0.0654

Sequence	PBM E-score
GTGATAAA	0.0219
GCGTCCAA	0.372
TACGCTCA	-0.136
CGGAGAAC	-0.124
CAGGGAAG	-0.00506
TCCGAAGA	-0.029
CAATACCC	0.00575
ACCGACGG	-0.107
CGCAATAG	0.104
CGATGGCA	-0.0116
AACGCATA	-0.154
CTGTGTTC	-0.0735
CAGAAAGG	-0.02
TTACGCAA	0.0651
AGTCACAG	-0.118
CCCCCGCA	-0.00922
GTACAGTA	-0.0272
AACAGTGA	-0.249
CTACGTTA	-0.122
ACCGCCGG	-0.192
GAATTAAA	0.0595
GTTGTTCA	-0.0476
TAGTACTA	0.153
AGCACTTA	0.175
ATTAGGTC	0.149

Sequence	PBM E-score
ACGGTGAA	-0.0089
GTCGTCAC	-0.0438
GCCTGTGA	0.0496
CCTAAACC	0.19
CTAGATCC	0.137
CCCAACAA	0.00509
AGCATGCT	-0.102
CGACACAG	-0.00213
GGTCTCAA	-0.0976
ATTATTAG	0.208
CTAAACCC	-0.131
GCTCTGCA	-0.118
AAGCTTAA	-0.0597
CACCACGG	-0.0416
AACTACCA	0.152
GGTCGTCA	0.0635
CACATACA	0.123
CAAACTTA	0.0945
ATTTTGGG	0.274
